In PubChem BioAssay AID485297 (National Center for Advancing Translational Sciences (NCATS), 2010):
Out of some 320,000 compounds screened, about 9,100 (2.8%) were called active. The shares of active, inactive and inconclusive entries below differ from those in the screen. Calls come from the whole dose curve; as a rule, active = well fitted activation curve with a large enough effect; inconclusive = small, poorly fitted or top-dose-only effect; inactive = no such curve, though single readings can be large or run the other way. Potencies of inconclusive entries are left out as doubtful fits.

Test: qHTS Assay for Rab9 Promoter Activators; note: nearly all actives have a fitted effect of over 60% in size; for activation, negative = inhibition: % of control where 0% means no effect
Conditions: Huh7 Rab9 promoter-luciferase reporter, luminescence, 24 h; series mostly up to 9.22 µM; activation, negative = inhibition: at the top concentration
Procedure, shortened: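 Luminescence read-out: Huh7 cells stably expressing Rab9-luciferase, treated 24 h with compound at 37 °C, then lysed with luciferase reagent for 10 min at ambient before reading.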
Potency is the fitted concentration of half-maximal effect; tags give direction and shape of the fitted curve.

SMILES	activation, negative = inhibition	Potency
CC(C)(C)C1CCc2onc(C(=O)Nc3cnn(Cc4ccc(F)cc4)c3)c2C1 (stereo unspecified)	inactive: -6.31%	
Cc1cc(C(=O)Cn2nnc3ccccc3c2=O)c(C)n1-c1ccccc1F		active: 0.398 µM
COc1ccc2cc3cc(C(=O)N4CC(C)CC(C)C4)oc3nc2c1 (stereo unspecified)		inconclusive [activator, single point]
COc1ccc(NC(=O)O/N=C/c2c(C)nn(C(C)(C)C)c2C)cc1		active: 0.316 µM
CCOc1ccc(/C=C2/C(=O)N(c3ccc(OC)cc3)C(=S)N2CC(=O)OC)cc1OCC		inconclusive [activator, partial curve]
CC(O)CNCCCOc1cccc(Oc2ccccc2)c1 (stereo unspecified)		inconclusive [activator, single point]
Cc1ccccc1Nc1nc(-c2sc(NC(=O)c3ccccc3)nc2C)cs1	inactive: -4.2%	
O=C(CSc1nnnn1C1CCCC1)N1CCCCC1		active: 3.16 µM
O=C(Nc1nccs1)c1ccc(-c2ccc(F)c(Cl)c2)o1		inconclusive [activator, partial curve]
Cn1cc(Cl)c(C(=O)Nc2nc3ccccc3s2)n1		inconclusive [activator, single point]
O=C(CSc1nnc2scc(-c3ccccc3)n12)N1CCCc2ccccc21		inconclusive [activator, single point]
COc1ccc(CSc2nnc(C)s2)cc1F		inconclusive [activator, single point]
COc1ccccc1NC(=O)Nc1ccncc1	inactive: -1.84%	
COc1ccc(-c2cc(CCCC(=O)NCCc3ccccc3)no2)cc1		inconclusive [activator, partial curve]
Cc1cc(N/N=C/c2cccc(Br)c2)nc2ccccc12		inconclusive [activator, partial curve]
Cc1ccc(S(=O)(=O)N2CCN(C(=O)NCc3ccc(C(=O)O)cc3)CC2)cc1		inconclusive [activator, single point]
Cc1cccc(NC(=O)CCCn2c(=S)[nH]c3ccccc3c2=O)c1	inactive: -11.8%	
CN(C(=O)/C=C/c1ccc2c(c1)OCO2)c1ccccc1		inconclusive [activator, single point]
COc1cc(C(=O)NNC(=O)CNC(=O)c2ccc(Br)o2)cc(OC)c1OC	inactive: -3.08%	
CCOC(=O)c1sc(NC(=O)CSc2nccn2C)nc1C		inconclusive [activator, single point]
CC(=O)Nc1ccc(/C=C/c2nc3ccccc3[nH]c2=O)cc1		inconclusive [activator, single point]
Cc1ccc(-c2noc(CN3CCC(C(N)=O)CC3)n2)cc1		inconclusive [activator, single point]
COc1cc(/C=N/Nc2nncn2/N=C/c2ccc(O)c(OC)c2)ccc1O		inconclusive [activator, single point]
Cc1ccc(-c2csc(NC(=O)C3CSC4(C)CCC(=O)N34)n2)cc1 (stereo unspecified)	inactive: 10.4%	
COc1cc(C(=O)Nc2ccc3c(c2)OCCO3)ccc1OC(F)F		active: 2.82 µM
C/C(=N\O)c1ccc2[nH]ccc2c1		inconclusive [activator, single point]

SMILES	activation, negative = inhibition	Potency
Cc1occc1C(=O)N/N=C/C(Br)=C\c1ccccc1		active: 0.891 µM
CC1(C)CC(=O)C=C(Nc2cc(-c3ccccc3)[nH]n2)C1		inconclusive [activator, full curve, poor fit]
c1ccc(SCc2nc(-c3ccncc3)no2)cc1		inconclusive [activator, partial curve]
CCOc1cc(/C=C2\SC(=S)N(Nc3ccccc3)C2=O)ccc1O	inactive: 4.9%	
Cc1c(NC(=O)C(C)OC(=O)CNC(=O)c2ccc(C(C)(C)C)cc2)c(=O)n(-c2ccccc2)n1C (stereo unspecified)		inconclusive [activator, single point]
Cc1sc(NC(=O)C2=COCCO2)nc1-c1ccc(Cl)cc1	inactive: 21.3%	
COc1ccc(Nc2cc(Nc3cccc(OC)c3)ncn2)cc1		inconclusive [activator, single point]
COc1cccc2cc(C(=O)NCc3ccc(Cl)cc3)c(=N)oc12	inactive: -0.464%	
Cc1nc2ccc(NC(=O)c3sccc3C)cc2s1		active: 2.24 µM
Cc1ccc(NC(=S)N2CCCC(CO)C2)c(C)c1 (stereo unspecified)		inconclusive [activator, partial curve]
C=CCn1cccc(C(=O)Nc2ccc(SC)cc2)c1=O		active: 3.98 µM
O=C(c1cc(COc2cccc3cnccc23)on1)N1CCCC(CCCO)C1 (stereo unspecified)	inactive: -29.1%	
Cc1ccsc1C(=O)OCC(=O)Nc1sccc1C(N)=O		inconclusive [activator, single point]
O=C(Nc1nccs1)c1ccc(-c2ccc(Cl)cc2Cl)o1		active: 3.16 µM
Cc1cccc(NC(=O)c2ccccn2)c1C		active: 3.55 µM
CCC(=O)Nc1ccc(NC(=O)c2ccco2)c(OC)c1		inconclusive [activator, single point]
Cc1ccc(OCCOc2ccc(Br)cc2)c([N+](=O)[O-])n1		inconclusive [activator, partial curve]
O=C(Nc1ccc(N2CCOCC2)cc1)c1cn2ccccc2n1		inconclusive [activator, full curve]
COc1ccc(-c2cnc3ccccc3n2)cc1NC(=O)CNC(=O)c1ccccc1		inconclusive [activator, partial curve]
O=C(COc1ccccc1)N1CCc2ccccc21		active: 1.26 µM
O=C1CCCCC1C(=O)c1cn(-c2ccc(Cl)c(Cl)c2)nn1 (stereo unspecified)	inactive: 23.6%	
C/C=C(\C)CN1CCC(Oc2ccc(C(=O)NCc3ccccn3)cc2)CC1	inactive: -1.1%	
C1=Nc2ccccc2CN1c1ccccc1		inconclusive [activator, partial curve]
O=C(/C=C/c1ccccc1)Nc1ccc(CN2CCOCC2)cc1		inconclusive [activator, single point]
CCCCCC(=O)Nc1ccc(C(=O)COC(=O)c2ccccn2)cc1	inactive: -4.43%	
CC1CCN(c2nc3nonc3nc2Nc2ccc(F)cc2)CC1		inconclusive [activator, partial curve, poor fit]

SMILES	activation, negative = inhibition	Potency
CCOc1ccc(C(=O)Cn2cnc3ccccc3c2=O)cc1		inconclusive [activator, partial curve]
COc1ccc2c(=O)c(Oc3ccc(C(=O)O)cc3)c(C(F)(F)F)oc2c1		inconclusive [activator, partial curve]
c1ccc(-c2nnc(CN3CCCCC3)o2)cc1		inconclusive [activator, partial curve]
CCn1c(O)c(C=Nc2ccccc2)sc1=O		inconclusive [activator, partial curve]
COc1ccc(-n2nc([N+](=O)[O-])c(=NCCc3ccc(C)cc3)n2O)cc1		inconclusive [activator, full curve]
C=CCn1c(=N)n(CC(=O)c2cccc([N+](=O)[O-])c2)c2ccccc21		inconclusive [activator, partial curve]
O=C(Nc1ccccc1O)c1cc2cc(Br)ccc2oc1=O		inconclusive [activator, single point]
CC(=O)Nc1ccc(C2C(=O)c3ccccc3C2=O)cc1		inconclusive [activator, single point]
Cc1ccc(CNC(=O)NC2CCCCC2)cc1		inconclusive [activator, single point]
C/C(=N\NC(=O)c1ccccc1F)c1ccccn1		active: 0.316 µM
CC1CCCCN1C(=O)CSc1nnc(-c2ccccc2O)o1 (stereo unspecified)		active: 3.55 µM
O=C(Nc1cccnc1)c1cnc2ccccc2n1		inconclusive [activator, partial curve]
CCOc1ccc(OCCn2nnc3ccccc3c2=O)cc1		active: 2.82 µM
O=C(NCc1cccs1)c1cc2c(s1)CCCC2		inconclusive [activator, partial curve]
CC1CCCN(c2ccc3nc4ccccc4c(=O)n3n2)C1 (stereo unspecified)		inconclusive [activator, partial curve]
CCN(CC(=O)Nc1c(C(=O)OC)[nH]c2ccccc12)c1ccc2c(c1)OCO2	inactive: -0.517%	
Cc1cc(C)cc(N(CC(=O)O)S(=O)(=O)c2c(C)[nH]c(=O)[nH]c2=O)c1	inactive: -6.84%	
Cn1cccc1/C=C1\SC(=O)N(c2ccc(O)cc2)C1=O		inconclusive [activator, single point]
COc1ccc(CC(=O)c2ccc(OC3OC(CO)C(O)C(O)C3O)cc2O)cc1 (stereo unspecified)		inconclusive [activator, single point]
O=c1c2[nH]c3ccc(F)cc3c2ncn1CCC1=CCCCC1		inconclusive [activator, partial curve]
Oc1oc(-c2ccc(Br)cc2)nc1/C=N/c1ccccn1		inconclusive [activator, single point]
COc1ccc(S(=O)(=O)N2CCCCCC2)cc1N(C)S(=O)(=O)c1ccccc1	inactive: -3.57%	
CCOC(=O)Cc1csc(NC(=O)/C=C\c2ccccc2Cl)n1		inconclusive [activator, single point]
CCOc1ccc(/C=N/Nc2nc(C)cs2)c(O)c1		active: 1.78 µM
